Values marked as one replicate rest on one cluster of the flow cell; about a third of the high ones do not repeat.
System: ATP
Assay: switch fluorescence ratio, 500 uM ATP over buffer (Cy3 cluster intensity, sum of 5 cycles each) (fold (ratio)); higher = stronger signal-on switching upon ATP binding; sequences stand for … in TCGTCGGCAGCGTCAGATGTGTATAAGAGACAGTTTTTTTTTTTTTTTTTTTTTTTTT…TC
Conditions: aptamer strand: ATP DNA aptamer (quencher-CACCTGGGGGAGTATTGCGGAGGAAGG + anchor), 100 nM annealed; ATP concentration: 500 uM; one replicate
In short: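 After annealing to 100 nM quencher-labelled ATP aptamer, Cy3-labelled switching-strand clusters on a modified Illumina MiSeq flow-cell were imaged in selection buffer. A second image followed after 15 min with 500 uM ATP at 22 °C, and five such buffer/ATP cycles were done, each separated by NaOH stripping and re-annealing. The fluorescence ratio, averaged per switch-domain sequence, is summed target-cycle over summed buffer-cycle Cy3 intensity per cluster, with clusters outside 100-1000 RFU excluded.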
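Further: ATP exposure 15 min at 22 °C before imaging.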

Sequence | switch fluorescence ratio
CTACGGACAT | 1.36
GAACTGAGGC | 0.953
GATGGATCAG | 1.01
GTTGGAACTA | 1
CTTAGAGGCG | 1.07
GATGATTTT | 0.97
CGTATTCCCG | 0.968
CCATTGAGAG | 1.01
CCATTACTAC | 1.14
TCATTGCCTG | 0.918
TAATGGTAAG | 0.994
CTCTTTGGTG | 1.07
CGGCTCAATA | 1.43
AAAACTTTAA | 0.981
AGTACCCCGC | 1.2
CCCCCATGCT | 1.9
ATTTCGAGGT | 1.01
TTTCGGCCTA | 1.01
CCAAGTCGT | 0.99
TATGCACTTG | 1.08
ACGAGATGAA | 0.986
TATAAATCTG | 0.925

Sequence | switch fluorescence ratio
TGTATGATTT | 1.01
AGCTTTTAAA | 0.964
ACCTGCACGG | 1.14
GGATATAGCA | 1.02
CAGTTCTTTT | 0.935
TTAAGGGTAC | 1.06
AATGAGGACA | 0.987
CTTGTAAGGG | 1.01
CTGAATGAAA | 1.02
GTGAGGGGAT | 0.985
CGGTTATAAC | 1.03
AAGTAAATAA | 1.04
CGTTTAAGGC | 1.04
AAGTGGAGCT | 1.02
GTTGGTCAA | 0.994
GGGAGCTTTG | 1.02
TTCTGGGCAA | 1.73
TGGTTCCTTG | 1.04
CGTGTGTATA | 1.04
AGAGGGATCG | 1.01
ATTTTTGTGT | 0.987
TCCCACAGTC | 1.19

Sequence | switch fluorescence ratio
GTCCGCGGGT | 1.07
TGTAGTAATG | 1.1
TTGCGCTGAG | 1.02
GAGTACGCCC | 1.1
AAAGAATAAG | 1
TGCCATTCAG | 1.04
ATTTGATGGA | 1.05
GAACTAGGCT | 0.998
TCAACTAAAA | 0.994
GTCTGAGGGA | 0.984
CAAAGAAAG | 0.985
GACAAACCAT | 1.01
ATTTTCAATT | 0.977
TATATATCAT | 0.971
CGTCGACCGA | 0.981
TCAGTGCCT | 1.04
TCCTAAGCT | 1.09
GCACTTAAGA | 1.03
TCCACGACTT | 0.988
TGTATTGGA | 0.989
TGTCTTCAG | 1.02
ATCGTCTTTT | 0.996

Sequence | switch fluorescence ratio
CCGTATCAAA | 1.17
CAGAGCATTG | 1.15
GTCTAAAAT | 1.01
GACGGTGTAG | 1.02
ATACTAACAT | 1.2
CGCCACTGTT | 1.09
TTCCAGAGCT | 1.7
TCATTTCGAC | 1.86
CGCTTCGTTG | 0.992
CAATATGGAA | 0.98
TGACTACCTT | 1.21
GGGGGAAGT | 0.997
GGCGCGCAGT | 1
TGATCTGTTG | 0.964
GACAGAGCTA | 1.43
TGTGCGGTGT | 1.03
AGCGCGTGGT | 0.99
CAAGAGGAT | 1.12
TCCTAGGTTA | 1.01

From the supplement of paper PMC10126150
